# Experimental data published in publication PMC9911399, “Two distinct binding modes provide the RNA-binding protein RbFox with extraordinary sequence specificity”.
# Positions count from the first letter of the chain named. The list shows a part of the results.
# T1: RBFOX1 RRM RbFoxmut (Fox-RRM*) (Homo sapiens, UniProt Q9NWB1 109-208, R118D;E147R;N151S;E152T)
# T1 sequence: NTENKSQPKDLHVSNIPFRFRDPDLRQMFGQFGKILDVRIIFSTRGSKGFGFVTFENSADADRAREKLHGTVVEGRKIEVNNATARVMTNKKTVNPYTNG
# B1: AACCGCG (DNA:RNA)
# RNA: GGGAGACCGGAAUUCAGAUUGUCCAACCGCGUUAAAUCCCGUCGUAGCCACCA
# DNA 1: CAATCTGAATTCCGGTCTCCC
# DNA 2: TGGTGGCTACGACGGGATT
# B2: ACUCGAU (DNA:RNA)
# RNA: B1 RNA with A26C, C27U, C30A, G31U
# DNA 1: CAATCTGAATTCCGGTCTCCC
# DNA 2: TGGTGGCTACGACGGGATT
# B3: GCCAACU (DNA:RNA)
# RNA: B1 RNA with A25G, A26C, C28A, G29A, G31U
# DNA 1: CAATCTGAATTCCGGTCTCCC
# DNA 2: TGGTGGCTACGACGGGATT
# B4: AGGGGCU (DNA:RNA)
# RNA: B1 RNA with A26G, C27G, C28G, G31U
# DNA 1: CAATCTGAATTCCGGTCTCCC
# DNA 2: TGGTGGCTACGACGGGATT
# B5: ACUAUGG (DNA:RNA)
# RNA: B1 RNA with A26C, C27U, C28A, G29U, C30G
# DNA 1: CAATCTGAATTCCGGTCTCCC
# DNA 2: TGGTGGCTACGACGGGATT
# B6: UUGACCG (DNA:RNA)
# RNA: B1 RNA with A25U, A26U, C27G, C28A, G29C
# DNA 1: CAATCTGAATTCCGGTCTCCC
# DNA 2: TGGTGGCTACGACGGGATT
# B7: GACAAGC (DNA:RNA)
# RNA: B1 RNA with A25G, C28A, G29A, C30G, G31C
# DNA 1: CAATCTGAATTCCGGTCTCCC
# DNA 2: TGGTGGCTACGACGGGATT
# B8: UAGAUAC (DNA:RNA)
# RNA: B1 RNA with A25U, C27G, C28A, G29U, C30A, G31C
# DNA 1: CAATCTGAATTCCGGTCTCCC
# DNA 2: TGGTGGCTACGACGGGATT
# B9: AUUUUUG (DNA:RNA)
# RNA: B1 RNA with A26U, C27U, C28U, G29U, C30U
# DNA 1: CAATCTGAATTCCGGTCTCCC
# DNA 2: TGGTGGCTACGACGGGATT
# B10: GAGCAUU (DNA:RNA)
# RNA: B1 RNA with A25G, C27G, G29A, C30U, G31U
# DNA 1: CAATCTGAATTCCGGTCTCCC
# DNA 2: TGGTGGCTACGACGGGATT
# B11: CGGACGA (DNA:RNA)
# RNA: GGGAGACCGGAAUUCAGAUUGUCCCGGACGAUUAAAUCCCGUCGUAGCCACCA
# DNA 1: CAATCTGAATTCCGGTCTCCC
# DNA 2: TGGTGGCTACGACGGGATT
# B12: GCAAUCU (DNA:RNA)
# RNA: B1 RNA with A25G, A26C, C27A, C28A, G29U, G31U
# DNA 1: CAATCTGAATTCCGGTCTCCC
# DNA 2: TGGTGGCTACGACGGGATT
# B13: UCCUGAU (DNA:RNA)
# RNA: B1 RNA with A25U, A26C, C28U, C30A, G31U
# DNA 1: CAATCTGAATTCCGGTCTCCC
# DNA 2: TGGTGGCTACGACGGGATT
# B14: UAAGCGU (DNA:RNA)
# RNA: B11 RNA with C25U, G26A, G27A, A28G, A31U
# DNA 1: CAATCTGAATTCCGGTCTCCC
# DNA 2: TGGTGGCTACGACGGGATT
# B15: UCCGCCU (DNA:RNA)
# RNA: B1 RNA with A25U, A26C, C28G, G29C, G31U
# DNA 1: CAATCTGAATTCCGGTCTCCC
# DNA 2: TGGTGGCTACGACGGGATT
# B16: GCUCGAA (DNA:RNA)
# RNA: B1 RNA with A25G, A26C, C27U, C30A, G31A
# DNA 1: CAATCTGAATTCCGGTCTCCC
# DNA 2: TGGTGGCTACGACGGGATT
# B17: UCUUGGG (DNA:RNA)
# RNA: B1 RNA with A25U, A26C, C27U, C28U, C30G
# DNA 1: CAATCTGAATTCCGGTCTCCC
# DNA 2: TGGTGGCTACGACGGGATT
# B18: CGGGGCA (DNA:RNA)
# RNA: B11 RNA with A28G, C29G, G30C
# DNA 1: CAATCTGAATTCCGGTCTCCC
# DNA 2: TGGTGGCTACGACGGGATT
# B19: AUGGAGA (DNA:RNA)
# RNA: B11 RNA with C25A, G26U, A28G, C29A
# DNA 1: CAATCTGAATTCCGGTCTCCC
# DNA 2: TGGTGGCTACGACGGGATT
# B20: AAGGACC (DNA:RNA)
# RNA: B1 RNA with C27G, C28G, G29A, G31C
# DNA 1: CAATCTGAATTCCGGTCTCCC
# DNA 2: TGGTGGCTACGACGGGATT
# B21: GCUCGUU (DNA:RNA)
# RNA: B1 RNA with A25G, A26C, C27U, C30U, G31U
# DNA 1: CAATCTGAATTCCGGTCTCCC
# DNA 2: TGGTGGCTACGACGGGATT
# B22: GUUAGUC (DNA:RNA)
# RNA: B1 RNA with A25G, A26U, C27U, C28A, C30U, G31C
# DNA 1: CAATCTGAATTCCGGTCTCCC
# DNA 2: TGGTGGCTACGACGGGATT
# B23: ACACAUA (DNA:RNA)
# RNA: B1 RNA with A26C, C27A, G29A, C30U, G31A
# DNA 1: CAATCTGAATTCCGGTCTCCC
# DNA 2: TGGTGGCTACGACGGGATT
# B24: CGCCUUG (DNA:RNA)
# RNA: B1 RNA with A25C, A26G, G29U, C30U
# DNA 1: CAATCTGAATTCCGGTCTCCC
# DNA 2: TGGTGGCTACGACGGGATT
# B25: GAGCGUC (DNA:RNA)
# RNA: B1 RNA with A25G, C27G, C30U, G31C
# DNA 1: CAATCTGAATTCCGGTCTCCC
# DNA 2: TGGTGGCTACGACGGGATT
# B26: GAAAUAG (DNA:RNA)
# RNA: B1 RNA with A25G, C27A, C28A, G29U, C30A
# DNA 1: CAATCTGAATTCCGGTCTCCC
# DNA 2: TGGTGGCTACGACGGGATT
# B27: CAUCCGG (DNA:RNA)
# RNA: B1 RNA with A25C, C27U, G29C, C30G
# DNA 1: CAATCTGAATTCCGGTCTCCC
# DNA 2: TGGTGGCTACGACGGGATT
# B28: ACCAGUC (DNA:RNA)
# RNA: B1 RNA with A26C, C28A, C30U, G31C
# DNA 1: CAATCTGAATTCCGGTCTCCC
# DNA 2: TGGTGGCTACGACGGGATT
# B29: UCGUCGA (DNA:RNA)
# RNA: B11 RNA with C25U, G26C, A28U
# DNA 1: CAATCTGAATTCCGGTCTCCC
# DNA 2: TGGTGGCTACGACGGGATT
# B30: UGGAUAC (DNA:RNA)
# RNA: B11 RNA with C25U, C29U, G30A, A31C
# DNA 1: CAATCTGAATTCCGGTCTCCC
# DNA 2: TGGTGGCTACGACGGGATT
# B31: AUUUUCG (DNA:RNA)
# RNA: B1 RNA with A26U, C27U, C28U, G29U
# DNA 1: CAATCTGAATTCCGGTCTCCC
# DNA 2: TGGTGGCTACGACGGGATT
# Biological target: T1, RBFOX1 RRM RbFoxmut (Fox-RRM*)
# Assay: EMSA; HiTS-Eq, 1 nM pool, 10 min; buffer printed only for the single-RNA assays: 10 mM Tris pH 7.5, 150 mM NaCl, 3.4 mM EDTA, 0.001% NP-40, 30 C
# Conditions: tags: His6 N-terminal (pET28a); label: 5' 32P
# Method in brief: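 Purified wild-type or mutant RbFox RRM at increasing concentrations was equilibrated with 1 nM of 5′-radiolabelled RNA carrying 7 randomized nucleotides for 10 min in 50 µL. Unbound RNA was separated by 8% native PAGE and sequenced. Relative association constants came from read-count changes of each RNA species compared with the control reaction, normalised to the cognate motif.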
row,Binder,binding signal
1,B1,0.0985 KA relative to UGCAUGU
2,B2,0.0604 KA relative to UGCAUGU
3,B3,0.0589 KA relative to UGCAUGU
4,B4,0.113 KA relative to UGCAUGU
5,B5,0.0736 KA relative to UGCAUGU
6,B6,0.14 KA relative to UGCAUGU
7,B7,0.0177 KA relative to UGCAUGU
8,B8,0.0415 KA relative to UGCAUGU
9,B9,0.111 KA relative to UGCAUGU
10,B10,0.0833 KA relative to UGCAUGU
11,B11,0.0738 KA relative to UGCAUGU
12,B12,0.05 KA relative to UGCAUGU
13,B13,0.0975 KA relative to UGCAUGU
14,B14,0.104 KA relative to UGCAUGU
15,B15,0.0654 KA relative to UGCAUGU
16,B16,0.0903 KA relative to UGCAUGU

row,Binder,binding signal
1,B17,0.0726 KA relative to UGCAUGU
2,B18,0.121 KA relative to UGCAUGU
3,B19,0.139 KA relative to UGCAUGU
4,B20,0.0638 KA relative to UGCAUGU
5,B21,0.114 KA relative to UGCAUGU
6,B22,0.0924 KA relative to UGCAUGU
7,B23,0.0808 KA relative to UGCAUGU
8,B24,0.978 KA relative to UGCAUGU
9,B25,0.103 KA relative to UGCAUGU
10,B26,0.109 KA relative to UGCAUGU
11,B27,0.0542 KA relative to UGCAUGU
12,B28,0.063 KA relative to UGCAUGU
13,B29,0.0887 KA relative to UGCAUGU
14,B30,0.0859 KA relative to UGCAUGU
15,B31,0.0844 KA relative to UGCAUGU
